The chains are these.
B1: Caulobacter ParB omega fusion; a variant is named by its letters at X, in order, B8GW30 (parent)
chain: MESVVVGEPGMSEGRRGLGRGLSALLGEVDAAPAQAPGEQLGGSREAPIEILQRNPDQPRRTFREEDLEDLSNSIREKGVLQPILVRPSPDTAGEYQIVAGERAWRAAQRAGLKTVPIMVRELDDLAVLEIGIIENVQRADLNVLEEALSYKVLMEKFERTQENIAQTIGKSXSHVANXMRLLXLPDEVQSYLVSGELTAXHARAIAAAADPVALAKQIIEGGLSVRETEALARKAPNLSAGKSKGGRPPRVKDTDTQALESDLSSVLGLDVSIDHRGSTGTLTITYATLEQLDDLCNRLTRGI

In all, about 81,000 sequences were measured (“one-hybrid fitness for binding NBS DNA”: median about -0.1, highest 2% from about 0.36 on). The list shows a part of the results. A value given as a limit tells only on which side of the number the result lay.

The values that follow come from a collection of fitness landscapes (doi:10.1016/j.celrep.2020.107928).

In the experiment the parent is B1. The experiment in a line: one-hybrid fitness for binding NBS DNA (the Noc-binding site; scaled: cognate 1, non-cognate 0); higher = stronger binding. To be noted: with NBS DNA site. In a few lines: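 Bacterial one-hybrid selection in E. coli USO rpoZ- hisB- pyrF- with a HIS3 reporter carrying the site 19 bp from the promoter, screening Caulobacter ParB libraries with four specificity codons randomised (NNS). Cells grew 48 hours at 37°C on M9-minus-histidine plus 0.1 mM IPTG and 5 mM 3-AT. Plasmids before and after selection were Illumina-sequenced, three replicate libraries pooled, and variants under 10 reads dropped. Fitness is the log change in variant-to-wild-type read ratio, rescaled to cognate 1, non-cognate 0.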
Turning to TNFF, the “one-hybrid fitness for binding NBS DNA” value is ≤ 0.2.

For GTVE, the “one-hybrid fitness for binding NBS DNA” value was ≤ 0.2. In the case of WIPR, the “one-hybrid fitness for binding NBS DNA” value is ≤ 0.2. Consider NTAG, for which the “one-hybrid fitness for binding NBS DNA” value was ≤ 0.2. With LPFA the figure was ≤ 0.2; with QPVM, ≤ 0.2. With CMNT the figure was ≤ 0.2. Regarding YRKH, the “one-hybrid fitness for binding NBS DNA” value was ≤ 0.2.

For the variant AILC, the “one-hybrid fitness for binding NBS DNA” value is ≤ 0.2. For the variant QAEG, the “one-hybrid fitness for binding NBS DNA” value is ≤ 0.2. Under ERMT stands ≤ 0.2. With EGCG the figure was ≤ 0.2.

Turning to ECFS, the “one-hybrid fitness for binding NBS DNA” value is ≤ 0.2. Consider YMVA, for which the “one-hybrid fitness for binding NBS DNA” value was ≤ 0.2.

Consider RMRL, for which the “one-hybrid fitness for binding NBS DNA” value was ≤ 0.2. With EVTG the figure was ≤ 0.2.

With ASWY, the “one-hybrid fitness for binding NBS DNA” value is ≤ 0.2. With PPEL the figure was ≤ 0.2; with KLNK, ≤ 0.2; with WLCN, ≤ 0.2. With QNLY the figure was ≤ 0.2; with TKGS, ≤ 0.2; with TKSR, ≤ 0.2.

As to HTYI, the “one-hybrid fitness for binding NBS DNA” value is ≤ 0.2. Under RKGV stands ≤ 0.2; under EQTV, ≤ 0.2; under SFPR, ≤ 0.2. Under PGNQ stands ≤ 0.2; under QIPE, ≤ 0.2.

Take CDPK: the “one-hybrid fitness for binding NBS DNA” value is ≤ 0.2. With HQPA the figure was ≤ 0.2; with ADVW, ≤ 0.2. As for WASC, the “one-hybrid fitness for binding NBS DNA” value is ≤ 0.2.

As for RHVD, the “one-hybrid fitness for binding NBS DNA” value is ≤ 0.2. As for RVQW, the “one-hybrid fitness for binding NBS DNA” value is ≤ 0.2. Under HCHA stands ≤ 0.2; under QHGN, ≤ 0.2. With LFSW the figure was ≤ 0.2.

In the case of WMSV, the “one-hybrid fitness for binding NBS DNA” value is ≤ 0.2. For the variant HSYA, the “one-hybrid fitness for binding NBS DNA” value was ≤ 0.2.

In the case of MSVK, the “one-hybrid fitness for binding NBS DNA” value was ≤ 0.2. With FRPI the figure was ≤ 0.2.

Regarding LGAE, the “one-hybrid fitness for binding NBS DNA” value was ≤ 0.2.

On to QQVP, for which the “one-hybrid fitness for binding NBS DNA” value was ≤ 0.2. Under GDMM stands ≤ 0.2; under IITV, ≤ 0.2. As for QYKE, the “one-hybrid fitness for binding NBS DNA” value came to 0.213. Consider QYFA, for which the “one-hybrid fitness for binding NBS DNA” value was ≤ 0.2. With MLDM the figure was ≤ 0.2; with AWDS, ≤ 0.2; with LQLG, ≤ 0.2. PDMF: the “one-hybrid fitness for binding NBS DNA” value is ≤ 0.2. With MHRI the figure was ≤ 0.2; with QQHI, ≤ 0.2. On to QVRV, for which the “one-hybrid fitness for binding NBS DNA” value was ≤ 0.2. Turning to SMGM, the “one-hybrid fitness for binding NBS DNA” value is ≤ 0.2. In the case of TCGV, the “one-hybrid fitness for binding NBS DNA” value is ≤ 0.2. In the case of VFPG, the “one-hybrid fitness for binding NBS DNA” value was ≤ 0.2. Under PVNQ stands ≤ 0.2. As for RGIA, the “one-hybrid fitness for binding NBS DNA” value was ≤ 0.2.

On to AHGT, for which the “one-hybrid fitness for binding NBS DNA” value was ≤ 0.2. On to KIVV, for which the “one-hybrid fitness for binding NBS DNA” value was ≤ 0.2. With VTVR the figure was ≤ 0.2. With GDCL the figure was ≤ 0.2. With SDHY the figure was ≤ 0.2; with VHKF, ≤ 0.2. In the case of WESS, the “one-hybrid fitness for binding NBS DNA” value was ≤ 0.2.

In the case of YQKG, the “one-hybrid fitness for binding NBS DNA” value was ≤ 0.2.

With SYAS, the “one-hybrid fitness for binding NBS DNA” value is ≤ 0.2. With PGEC the figure was ≤ 0.2; with VKHY, ≤ 0.2. Under VMVY stands ≤ 0.2. Under GDDI stands ≤ 0.2.

For HYAN, the “one-hybrid fitness for binding NBS DNA” value was ≤ 0.2. Under GKRN stands ≤ 0.2. Under ETAS stands ≤ 0.2. Regarding DDDR, the “one-hybrid fitness for binding NBS DNA” value is ≤ 0.2. With CATL the figure was ≤ 0.2; with GMCC, ≤ 0.2; with NRFT, ≤ 0.2. With GALI the figure was ≤ 0.2; with YDTG, ≤ 0.2; with RNGS, ≤ 0.2.

Consider QEDF, for which the “one-hybrid fitness for binding NBS DNA” value was ≤ 0.2. Under SCWA stands ≤ 0.2; under FEGR, ≤ 0.2; under TVPN, ≤ 0.2. As to GWKR, the “one-hybrid fitness for binding NBS DNA” value turned out to be 0.221.

For the variant QHIW, the “one-hybrid fitness for binding NBS DNA” value is ≤ 0.2.

For the variant YAQT, the “one-hybrid fitness for binding NBS DNA” value was ≤ 0.2. With RHPP the figure was ≤ 0.2; with EFYG, ≤ 0.2. As for QGLP, the “one-hybrid fitness for binding NBS DNA” value is ≤ 0.2.

Consider SPTE, for which the “one-hybrid fitness for binding NBS DNA” value is ≤ 0.2.

As for PDEL, the “one-hybrid fitness for binding NBS DNA” value is ≤ 0.2. Regarding YDPY, the “one-hybrid fitness for binding NBS DNA” value was ≤ 0.2.

With SFCT, the “one-hybrid fitness for binding NBS DNA” value is ≤ 0.2. Under AASM stands ≤ 0.2; under ITKV, ≤ 0.2. Under SERR stands ≤ 0.2; under LFTY, ≤ 0.2.

For the variant NEMF, the “one-hybrid fitness for binding NBS DNA” value is ≤ 0.2.

As to HLED, the “one-hybrid fitness for binding NBS DNA” value is ≤ 0.2. With NYIE the figure was ≤ 0.2; with PTYK, ≤ 0.2; with RCCA, 0.268. Regarding YNGP, the “one-hybrid fitness for binding NBS DNA” value is ≤ 0.2. With GELR the figure was ≤ 0.2; with WCST, ≤ 0.2. Under YTYR stands ≤ 0.2; under HANF, ≤ 0.2. With CAVY the figure was ≤ 0.2; with DDHT, ≤ 0.2; with HSPT, ≤ 0.2. Take RRSV: the “one-hybrid fitness for binding NBS DNA” value came out at 0.296. Consider NQDG, for which the “one-hybrid fitness for binding NBS DNA” value was ≤ 0.2. Turning to DANY, the “one-hybrid fitness for binding NBS DNA” value is ≤ 0.2. With YPCF the figure was ≤ 0.2. With KSNR, the “one-hybrid fitness for binding NBS DNA” value is ≤ 0.2. With GIET the figure was ≤ 0.2. With PFPV, the “one-hybrid fitness for binding NBS DNA” value was ≤ 0.2.

Take QSPY: the “one-hybrid fitness for binding NBS DNA” value is ≤ 0.2. LNAF: the “one-hybrid fitness for binding NBS DNA” value was ≤ 0.2. With QPHK the figure was ≤ 0.2. With QDNT the figure was ≤ 0.2. With PMLY, the “one-hybrid fitness for binding NBS DNA” value was ≤ 0.2. With WVRT the figure was ≤ 0.2; with SAQT, ≤ 0.2.

On to QNRT, for which the “one-hybrid fitness for binding NBS DNA” value was found to be 0.292. With KNQF the figure was ≤ 0.2; with AMLE, ≤ 0.2. Under SNRY stands ≤ 0.2; under REER, ≤ 0.2. As to NPVF, the “one-hybrid fitness for binding NBS DNA” value was ≤ 0.2.

In the case of RSND, the “one-hybrid fitness for binding NBS DNA” value was ≤ 0.2. Take PYNG: the “one-hybrid fitness for binding NBS DNA” value is ≤ 0.2. For DYNH, the “one-hybrid fitness for binding NBS DNA” value is ≤ 0.2.

QMRK: the “one-hybrid fitness for binding NBS DNA” value turned out to be 0.387. With WSFS the figure was ≤ 0.2.

Regarding DREG, the “one-hybrid fitness for binding NBS DNA” value is ≤ 0.2. WFGR: the “one-hybrid fitness for binding NBS DNA” value is ≤ 0.2. On to DMHW, for which the “one-hybrid fitness for binding NBS DNA” value is ≤ 0.2.

With RSPW, the “one-hybrid fitness for binding NBS DNA” value was ≤ 0.2. Turning to LRPC, the “one-hybrid fitness for binding NBS DNA” value is ≤ 0.2.

As to AKMP, the “one-hybrid fitness for binding NBS DNA” value is ≤ 0.2.

For VIAG, the “one-hybrid fitness for binding NBS DNA” value is ≤ 0.2. Consider YRLI, for which the “one-hybrid fitness for binding NBS DNA” value was ≤ 0.2. With TLLC, the “one-hybrid fitness for binding NBS DNA” value was ≤ 0.2. With GTNI the figure was ≤ 0.2; with KTCY, ≤ 0.2. Under LDAC stands ≤ 0.2; under TWGR, ≤ 0.2. With IRYR, the “one-hybrid fitness for binding NBS DNA” value is 0.226. With NGIL the figure was ≤ 0.2; with ETPM, ≤ 0.2. For the variant RDRT, the “one-hybrid fitness for binding NBS DNA” value is ≤ 0.2. With GCTE the figure was ≤ 0.2; with NQHC, ≤ 0.2; with AKSR, ≤ 0.2. Regarding LAGQ, the “one-hybrid fitness for binding NBS DNA” value was ≤ 0.2.

Turning to HGDY, the “one-hybrid fitness for binding NBS DNA” value was ≤ 0.2. With RQTI the figure was ≤ 0.2. For HTNY, the “one-hybrid fitness for binding NBS DNA” value is ≤ 0.2. With QLCM the figure was ≤ 0.2; with LNHR, ≤ 0.2. Under NVHE stands ≤ 0.2; under YCHI, ≤ 0.2; under NLDF, ≤ 0.2. With PIQT the figure was ≤ 0.2; with SYNF, ≤ 0.2; with AYMG, ≤ 0.2. Regarding SSGY, the “one-hybrid fitness for binding NBS DNA” value is ≤ 0.2. Take QMNG: the “one-hybrid fitness for binding NBS DNA” value was ≤ 0.2. With HWLS the figure was ≤ 0.2; with HSEM, ≤ 0.2. With DSAP the figure was ≤ 0.2; with MSES, ≤ 0.2; with DTTP, ≤ 0.2.

In the case of QRKL, the “one-hybrid fitness for binding NBS DNA” value worked out at 0.367. Regarding ITQS, the “one-hybrid fitness for binding NBS DNA” value is ≤ 0.2.

For LPRG, the “one-hybrid fitness for binding NBS DNA” value was ≤ 0.2.

On to QTEF, for which the “one-hybrid fitness for binding NBS DNA” value is ≤ 0.2. With LQAK the figure was ≤ 0.2; with EHKE, ≤ 0.2; with CARI, ≤ 0.2.

For the variant QRVL, the “one-hybrid fitness for binding NBS DNA” value is ≤ 0.2. Under QAKC stands 0.349.

Consider CMFS, for which the “one-hybrid fitness for binding NBS DNA” value is ≤ 0.2. Under SQPT stands ≤ 0.2; under RCSY, ≤ 0.2; under SQCV, ≤ 0.2. For DKMG, the “one-hybrid fitness for binding NBS DNA” value is ≤ 0.2.

As to DKLR, the “one-hybrid fitness for binding NBS DNA” value was ≤ 0.2. Under AMMR stands ≤ 0.2; under QACT, 0.363.
